Reference: the supplement of paper PMC4967469

Experiments:
Assay in all cases: Viability of human cancer cell lines after 72 h of drug (GDSC screen)
AUY922 = compound: CCNC(=O)c1noc(-c2cc(C(C)C)c(O)cc2O)c1-c1ccc(CN2CCOCC2)cc1 [AUY922]; settings: top dose 0.256 µM; top dose inferred
Method: (§1)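 Human cancer cell lines in 384-well plates, medium with 10% serum, drug for 72 h over a 256-fold dose range (nine 2-fold or five 4-fold steps up to the top dose). Adherent lines were fixed and stained with the nucleic acid dye Syto60, suspension lines read with resazurin; signal relative to control wells, capped at 0 and 100%. One two-parameter sigmoid per drug and line, fitted in a mixed model over all curves with the slope shared within a line.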

KIN001-270 = compound: Cc1ccc(Nc2cc(-c3cccc(N4C(=O)c5ccccc5C4=O)c3)ncn2)cc1NS(C)(=O)=O [KIN001-270]; settings: top dose 20 µM; top dose inferred
Method: as §1

T0901317 = compound: O=S(=O)(c1ccccc1)N(CC(F)(F)F)c1ccc(C(O)(C(F)(F)F)C(F)(F)F)cc1 [T0901317]; settings: top dose 10.24 µM; top dose inferred
Method: as §1

Bicalutamide = compound: CC(O)(CS(=O)(=O)c1ccc(F)cc1)C(=O)Nc1ccc(C#N)c(C(F)(F)F)c1 [Bicalutamide]; settings: top dose inferred
Method: as §1

MP470 = compound: S=C(NCc1ccc2c(c1)OCO2)N1CCN(c2ncnc3c2oc2ccccc23)CC1 [MP470]; settings: top dose 20 µM; top dose inferred
Method: as §1

LFM-A13 = compound: C/C(O)=C(\C#N)C(=O)Nc1cc(Br)ccc1Br [LFM-A13]; settings: top dose 16 µM; top dose inferred
Method: as §1

Nilotinib = compound: Cc1cn(-c2cc(NC(=O)c3ccc(C)c(Nc4nccc(-c5cccnc5)n4)c3)cc(C(F)(F)F)c2)cn1 [Nilotinib]; settings: top dose 2 µM
Method: as §1

TW-37 = compound: CC(C)c1ccccc1Cc1cc(C(=O)Nc2ccc(S(=O)(=O)c3ccccc3C(C)(C)C)cc2)c(O)c(O)c1O [TW-37]; settings: top dose 5 µM
Method: as §1

[1] = top dose 1.024 µM, screen: GDSC drug entry 150
[2] = top dose 10 µM, screen: GDSC drug entry 1502

Cell Line | AUC (AUY922) | IC50 (AUY922) [nM] | AUC (KIN001-270) | IC50 (KIN001-270) [µM] | AUC (T0901317) | IC50 (T0901317) [µM] | AUC (Bicalutamide; [1]) | IC50 (Bicalutamide; [1]) [µM] | AUC (Bicalutamide; [2]) | IC50 (Bicalutamide; [2]) [µM] | AUC (MP470) | IC50 (MP470) [µM] | AUC (LFM-A13) | IC50 (LFM-A13) [µM] | AUC (Nilotinib) | IC50 (Nilotinib) [nM] | AUC (TW-37) | IC50 (TW-37) [nM]
HCC70 (breast, adherent) | 0.697 | 56.7 | 0.987 | > 20 | 0.988 | > 10.2 | 0.985 | > 1.02 | 0.972 | > 10 | 0.97 | > 20 | 0.921 | > 16 | 0.938 | > 2000 | 0.624 | 683
22RV1 (prostate, adherent) | 0.56 | 24.2 | 0.981 | > 20 | 0.977 | > 10.2 | – | – | – | – | 0.929 | > 20 | 0.96 | > 16 | 0.979 | > 2000 | 0.687 | 1200
SNU-387 (liver, adherent) | 0.752 | 95.8 | 0.931 | > 20 | 0.962 | > 10.2 | 0.982 | > 1.02 | – | – | 0.961 | > 20 | 0.963 | > 16 | 0.983 | > 2000 | 0.47 | 255
KMRC-20 (kidney, adherent) | 0.983 | > 256 | 0.981 | > 20 | 0.982 | > 10.2 | – | – | 0.984 | > 10 | 0.959 | > 20 | 0.952 | > 16 | 0.98 | > 2000 | 0.593 | 566
HuO-3N1 (osteosarcoma, adherent) | 0.906 | > 256 | 0.983 | > 20 | 0.982 | > 10.2 | 0.98 | > 1.02 | 0.963 | > 10 | 0.977 | > 20 | 0.908 | > 16 | 0.963 | > 2000 | 0.753 | 2160
CAL-72 (osteosarcoma, adherent) | 0.874 | > 256 | 0.984 | > 20 | 0.978 | > 10.2 | 0.979 | > 1.02 | 0.947 | > 10 | 0.601 | 2.49 | 0.98 | > 16 | 0.982 | > 2000 | 0.697 | 1240
SW1990 (pancreas, adherent) | 0.54 | 21 | 0.973 | > 20 | 0.973 | > 10.2 | 0.98 | > 1.02 | 0.962 | > 10 | 0.921 | > 20 | 0.947 | > 16 | 0.961 | > 2000 | 0.733 | 1640

By IC50 is meant the dose at which the fit gives 50% viability; a fit beyond the top or the lowest dose is shown as a bound at that dose. AUC is the area under the same curve over the 256-fold range up to the top dose, as a fraction; values near 1 show little effect. For some of these results: A top dose marked as inferred was derived from the fitted curves, not read from the paper. For some of these results: An entry number marks a drug with two screens in the source, which often give different values.
